According to the supplement of paper PMC4967469:

Legend:
Test in all cases: Viability of human cancer cell lines after 72 h of drug (GDSC screen)
UNC0638 = compound: COc1cc2c(NC3CCN(C(C)C)CC3)nc(C3CCCCC3)nc2cc1OCCCN1CCCC1 [UNC0638]
Description: (§1)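 Human cancer cell lines in 384-well plates, medium with 10% serum, drug for 72 h over a 256-fold dose range (nine 2-fold or five 4-fold steps up to the top dose). Adherent lines were fixed and stained with the nucleic acid dye Syto60, suspension lines read with resazurin; signal relative to control wells, capped at 0 and 100%. One two-parameter sigmoid per drug and line, fitted in a mixed model over all curves with the slope shared within a line.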

SB-505124 = compound: Cc1cccc(-c2[nH]c(C(C)(C)C)nc2-c2ccc3c(c2)OCO3)n1 [SB-505124]; conditions: top dose 10 µM; top dose inferred
Description: as §1

GSK690693 = compound: CCn1c(-c2nonc2N)nc2c(C#CC(C)(C)O)ncc(OC[C@H]3CCCNC3)c21 [GSK690693]; conditions: top dose 10.24 µM; top dose inferred
Description: as §1

PI-103 = compound: Oc1cccc(-c2nc(N3CCOCC3)c3oc4ncccc4c3n2)c1 [PI-103]; conditions: top dose 10.24 µM
Description: as §1

Tretinoin = compound: CC1=C(/C=C/C(C)=C/C=C/C(C)=C/C(=O)O)C(C)(C)CCC1 [Tretinoin]; conditions: top dose 10 µM; top dose inferred
Description: as §1

BX-795 = compound: O=C(NCCCNc1nc(Nc2cccc(NC(=O)N3CCCC3)c2)ncc1I)c1cccs1 [BX-795]; conditions: top dose 5 µM; top dose inferred
Description: as §1

[1] = top dose 20 µM, screen: GDSC drug entry 1236, top dose inferred
[2] = top dose 40 µM, screen: GDSC drug entry 245

Row | Cell Line | AUC (UNC0638; [1]) | IC50 (UNC0638; [1]) [µM] | AUC (UNC0638; [2]) | IC50 (UNC0638; [2]) [µM] | AUC (SB-505124) | IC50 (SB-505124) [µM] | AUC (GSK690693) | IC50 (GSK690693) [µM] | AUC (PI-103) | IC50 (PI-103) [µM] | AUC (Tretinoin) | IC50 (Tretinoin) [µM] | AUC (BX-795) | IC50 (BX-795) [µM]
1 | RERF-LC-Sq1 (lung squamous cell carcinoma, adherent) | 0.94 | > 20 | 0.703 | 12.3 | 0.953 | > 10 | 0.917 | > 10.2 | 0.744 | 4.58 | 0.866 | > 10 | 0.958 | > 5
2 | RH-41 (rhabdomyosarcoma, adherent) | 0.797 | 7.73 | 0.895 | 34.7 | 0.847 | 5.65 | 0.992 | > 10.2 | 0.934 | > 10.2 | 0.691 | 1.94 | 0.888 | 4.02
3 | RO82-W-1 (thyroid, adherent) | 0.764 | 9.21 | 0.92 | > 40 | 0.98 | > 10 | 0.983 | > 10.2 | 0.961 | > 10.2 | 0.981 | > 10 | 0.846 | > 5
4 | RPMI-2650 (head and neck, adherent) | 0.973 | > 20 | 0.862 | 38.8 | 0.911 | > 10 | 0.889 | > 10.2 | 0.63 | 1.5 | 0.985 | > 10 | 0.961 | > 5
5 | RPMI-7951 (melanoma, adherent) | 0.863 | 16.5 | 0.703 | 9.12 | 0.986 | > 10 | 0.924 | > 10.2 | 0.603 | 1.22 | 0.946 | > 10 | 0.837 | 3.22
6 | RT4 (bladder, adherent) | 0.986 | > 20 | 0.706 | 9.83 | 0.986 | > 10 | 0.987 | > 10.2 | 0.985 | > 10.2 | 0.968 | > 10 | 0.982 | > 5
7 | SAS (head and neck, adherent) | 0.951 | > 20 | 0.867 | > 40 | 0.974 | > 10 | 0.958 | > 10.2 | 0.567 | 0.999 | 0.934 | > 10 | 0.98 | > 5
8 | SBC-3 (small cell lung carcinoma, adherent) | 0.936 | > 20 | 0.74 | 11.2 | 0.984 | > 10 | 0.928 | > 10.2 | 0.142 | 0.057 | 0.987 | > 10 | 0.787 | 1.96
9 | SBC-5 (small cell lung carcinoma, adherent) | 0.954 | > 20 | 0.897 | 33.3 | 0.989 | > 10 | 0.993 | > 10.2 | 0.993 | > 10.2 | 0.979 | > 10 | 0.908 | 4.66
10 | SCC-9 (head and neck, adherent) | 0.978 | > 20 | 0.758 | 17.6 | 0.978 | > 10 | 0.83 | 9.04 | 0.309 | 0.16 | 0.978 | > 10 | 0.859 | > 5
11 | SCC-25 (head and neck, adherent) | 0.836 | 15.9 | 0.758 | 15.6 | 0.981 | > 10 | 0.925 | > 10.2 | 0.866 | > 10.2 | 0.969 | > 10 | 0.907 | > 5
12 | SF295 (glioma, adherent) | 0.844 | 16 | 0.782 | 18.2 | 0.927 | > 10 | 0.955 | > 10.2 | 0.623 | 1.43 | 0.965 | > 10 | 0.827 | 3.38
13 | SISO (cervix, adherent) | 0.693 | 4.22 | 0.7 | 8.89 | 0.983 | > 10 | 0.959 | > 10.2 | 0.71 | 2.44 | 0.972 | > 10 | 0.885 | > 5
14 | SJRH30 (rhabdomyosarcoma, adherent) | 0.743 | 6.36 | 0.819 | 23.7 | 0.978 | > 10 | 0.63 | 1.48 | 0.433 | 0.418 | 0.986 | > 10 | 0.865 | 4.68
15 | SK-GT-4 (oesophagus, adherent) | 0.847 | > 20 | 0.753 | 16.3 | 0.975 | > 10 | 0.693 | 2.56 | 0.721 | 3.21 | 0.952 | > 10 | 0.85 | > 5
16 | SK-HEP-1 (liver, adherent) | 0.979 | > 20 | 0.825 | 21.9 | 0.981 | > 10 | 0.989 | > 10.2 | 0.978 | > 10.2 | 0.972 | > 10 | 0.838 | 3.07
17 | SK-MEL-3 (melanoma, adherent) | 0.634 | 3.12 | 0.627 | 5.92 | 0.893 | > 10 | 0.916 | > 10.2 | 0.615 | 1.4 | 0.976 | > 10 | 0.979 | > 5
18 | SK-MEL-5 (melanoma, adherent) | 0.795 | 11.7 | 0.949 | > 40 | 0.956 | > 10 | 0.979 | > 10.2 | 0.666 | 2.06 | 0.98 | > 10 | 0.875 | > 5
19 | SK-MEL-30 (melanoma, adherent) | 0.732 | 5.97 | 0.527 | 2.97 | 0.984 | > 10 | 0.974 | > 10.2 | 0.527 | 0.762 | 0.977 | > 10 | 0.97 | > 5

The IC50 comes from the fitted curve, where viability falls to half of the control; where the fit passes the top or lowest dose, that dose stands as a limit. AUC is the area under the same curve over the 256-fold range up to the top dose, as a fraction; values near 1 show little effect. For some assays here: The top dose, if marked as inferred, is not printed in the source and was worked back from the curve model. For some assays here: An entry number marks a drug with two screens in the source, which often give different values.
